# Assay results taken from the supplement of paper PMC3334620.
# The full ranking holds about 33,000 sequences; the median of “E-score (-0.5 to 0.5)” is about -0.056, and the highest 2% start at about 0.38. The list shows a part of the results.
# Target: Stb4 (UniProt P50104)
# Assay: PBM E-score (8-mer binding enrichment) (E-score (-0.5 to 0.5)); higher = stronger / more preferred TF binding; most listed sequences are background and not binding sites
# Details: protein concentration: 200 nM; construct: GST-DNA-binding domain
# In short: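 For each ungapped eight-base word taken together with its reverse complement, the Universal PBM Analysis Suite assigned an E-score. Binding data came from GST-tagged yeast transcription factors, applied at about 100-200 nM, on universal all-10-mer Agilent arrays made double-stranded by primer extension. Fluorescent anti-GST marked bound protein, and scans were normalised with masliner.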
row,Sequence,PBM E-score
1,GAAAGTCA,-0.00187
2,AAAGCCCA,-0.0753
3,AATGCACT,-0.242
4,CCATTGTA,-0.11
5,TACAAGCA,-0.0326
6,TGCCGACA,0.359
7,ACGTATAT,-0.238
8,CCCGAAAC,0.339
9,ATCTGGTC,-0.16
10,GACAAACA,-0.021
11,TGATGCAA,-0.0757
12,GGAAAGAA,0.171
13,ATGGTATA,-0.256
14,TGGCGCCA,-0.353
15,ACTGGGTC,-0.221
16,CCTGGGAC,-0.354
17,CGGGGTCA,0.229
18,TGCGCCAA,-0.0992
19,AACCTCTG,-0.148
20,CCCTCCCA,0.051
21,AACAAGTA,-0.28
22,GCTTACGA,-0.323
23,GTAATAGA,-0.0589
24,ATTCTAAC,-0.16
25,CGTCTCAA,0.00967

row,Sequence,PBM E-score
1,AAAGAAAA,0.151
2,CCCCTTAC,-0.128
3,AATTTACA,-0.159
4,AGTATACG,-0.129
5,ATAACATC,0.0801
6,CAATAGCA,-0.131
7,ACTACGCC,-0.177
8,CACTCCAA,-0.0407
9,ATAGCTCC,0.0352
10,CAAAAGTC,-0.125
11,ATGGGAAA,-0.0912
12,GTGTCTTA,-0.108
13,ACCATAGT,0.117
14,GCTATACA,-0.182
15,GTAAACAA,0.0419
16,CGCCATCC,0.0474
17,AAGATCCA,-0.0259
18,CTTTCTTA,-0.246
19,GTTCAATA,-0.138
20,CTTCCGGA,0.396
21,GCGTAATA,-0.0928
22,AGTACGCG,0.00259
23,GACTCGGC,0.327
24,GAATAGTC,-0.0418
25,TATCCCCA,-0.185

row,Sequence,PBM E-score
1,TCCACGAA,-0.227
2,GACATTAA,0.0594
3,CCCCACGA,-0.255
4,CATGAGGA,-0.114
5,CGACTTGC,-0.00118
6,TACAGCTA,-0.168
7,ACGCAAAT,-0.00753
8,CGTGAAAC,-0.192
9,GTGAGGAA,-0.164
10,ACAATGAT,-0.13
11,AACGATGC,-0.219
12,ATGTTGAA,-0.0897
13,AGTTTCAA,-0.116
14,CTCAATGC,-0.196
15,AAACGAGT,-0.0975
16,AGCTCCTC,-0.243
17,CCGTGCCC,0.132
18,CTTACCAC,-0.217
19,GAGGAATC,-0.07
20,AATACAAC,-0.0229
21,AATAACCA,-0.192
22,ATGATTAC,-0.107
23,AGCCAGTA,-0.156
24,AAATAAAA,-0.136
25,ACATTCAG,-0.0679

row,Sequence,PBM E-score
1,TAGATATA,0.0454
2,TCGGGCAA,0.259
3,GTTGCGAA,-0.0168
4,GTCGGTAA,0.333
5,AGACAGCG,-0.104
6,CGCACGGC,0.11
7,ATATAAAC,-0.291
8,AGTCGGCC,0.168
9,GGGTTTAA,0.0372
10,GTTGGCTA,-0.0887
11,ACGCGCCC,0.0801
12,AACAGATC,-0.109
13,GGGTTACC,-0.0254
14,CCATTATC,-0.035
15,CCAGTCCG,0.17
16,ATAGCCTA,-0.127
17,AGGCTTAT,-0.105
18,ATAACGGA,0.224
19,CGTGCAAC,-0.0298
20,GTCTTAGA,-0.0106
21,AATACAGG,0.0152
22,GCTGCTAA,0.00882
23,AACTGCTC,-0.0532
24,CCTGGGGC,-0.0727
25,ACATGAAT,-0.194

row,Sequence,PBM E-score
1,CGCTCTCC,0.00849
2,CCCCTCCA,-0.0373
3,ACGATGGG,-0.088
4,CTATAACA,-0.184
5,AGATTCCC,0.127
6,CATTTCAC,-0.0375
7,TAATCAGA,0.012
8,GCCCTCAC,-0.191
9,CTCCGCAC,0.00913
10,CATCTGCC,0.021
11,AAGTGATT,0.0748
12,ATTCCTCC,0.198
13,CTAACGAA,-0.0167
14,CTGTTCGA,-0.156
15,GGGTGAAC,0.0237
16,ATAGACCG,0.0138
17,GACTTTTA,-0.18
18,CTGTTGCC,-0.114
19,CTTCGCTC,-0.00314
20,GGTTAATA,0.244
21,CAGCTGGG,-0.0458
22,CTGCCGTC,0.14
23,GAAATCCA,-0.00848
24,AGGGACTG,-0.22
25,ATACGCGG,0.215

row,Sequence,PBM E-score
1,GTGTTTAA,-0.111
2,ACGATTAG,-0.179
3,GCAAAAGA,-0.192
4,ATAGCCCG,0.11
5,ATCAGATC,0.0105
6,CAATTGTA,0.033
7,ACAACCCC,-0.0737
8,GATGGTAC,0.0948
9,AGACTACC,0.015
10,ATCAAACC,-0.00702
11,GCATAGCC,-0.0533
12,AACGAGTA,-0.0725
13,CGTGGATA,-0.0462
14,AGCACACT,-0.036
15,ATCCAGTC,0.042
16,AAGCGGTC,0.105
17,ACGTTCAG,-0.252
18,GCGGTACA,0.0346
19,ATGCGAAT,0.0493
20,GAAAATGA,0.0976
21,AATAATGA,-0.0795
22,CCTTAGCC,-0.0423
23,TCTAAAGA,-0.015
24,ACGGGCAC,-0.12
25,AACCTTAT,-0.148

row,Sequence,PBM E-score
1,AACGGATA,0.439
2,CCAGTCAA,-0.126
3,ACTCCGGA,0.411
4,AATAGATC,0.0452
5,CGCGAGGC,0.0155
6,CGATTCTA,0.0196
7,CTGCCAAA,-0.04
8,CTACCGCC,0.0766
9,AAAAGTCC,0.0392
10,AGTCCACT,-0.244
11,AAGAAGGT,-0.0996
12,AAGAACGG,0.157
13,AGAAGGCC,-0.0107
14,AAGTCATC,-0.104
15,AGACCAAG,0.0151
16,ACCGGTAC,0.154
17,GAATGCAA,-0.0347
18,TGGAGGAA,-0.133
19,CGATAAGC,0.104
20,AGATAGGG,-0.195
21,AGGCATCC,-0.0871
22,ATTTCCCA,-0.0128
